This is an account of results in patent US20080200461A1, “MODULATORS OF ACETYL-COENZYME A CARBOXYLASE AND METHODS OF USE THEREOF” (Cropsolution, Inc., priority 2007, published 2008).

This experiment concerns the target yeast BC domain containing a K73R mutation (Saccharomyces cerevisiae, UniProt Q00955, K73R). The experiment is classed as binding. As for the experimental part:
The soraphen binding pocket contains a tryptophan residue. Thus, tryptophan fluorescence may be used to directly monitor binding of a ligand to this site. […] We conducted a similar assay in a 96-well format. Briefly, 200 nM protein in 100 mM Tris pH 8 containing 100 mM NaCl and 0.01% Tween 20 (v/v) was incubated in the presence of various amounts of test compounds dissolved in DMSO (1% v/v final concentration). Tryptophan fluorescence at […] was measured in a Pherastar plate reader (BMG Labtech) using 280 nm excitation.

Regarding `CO[C@H]1CCCC[C@@H](c2ccccc2)OC(=O)[C@@H](C)[C@@]2(O)O[C@H]([C@@H](C)[C@H](O)[C@H]2OC)[C@@H](C)/C=C/[C@H]1OC` [soraphen A, Soraphen A, reference compound], the “Effect on tryptophan fluorescence of yeast BC domain containing K73R mutation” value is on record as “no effect”.
The value for `CC[N+](CC)(CCCCN(Cc1cc(C)cc(C)c1)Cc1cc(C)cc(C)c1)Cc1cc(C)cc(C)c1.[Br-]` [Compound 28, Diethyl(3,5-dimethylbenzyl)[bis-(3,5-dimethylbenzyl)aminobutyl]ammonium formate] was “no effect”.
